# Out of some 94,000 compounds screened, about 4,000 (4.3%) were called active. The shares of active, inactive and inconclusive entries below differ from those in the screen. The call rests on the fitted dose curve; in most records, active means well fitted inhibition curve with a large enough effect; inconclusive means small, poorly fitted or top-dose-only effect; inactive means no such curve, though single readings can be large or run the other way. A potency beside an inconclusive call is a rough fit, not a confirmed value.
# Assay: Cytotoxic Profiling in NIH 3T3 Cell Line of Diverse Libraries Using Quantitative High-Throughput Screening; further: nearly all actives have a fitted effect of over 55% in size
# Settings: NIH 3T3 viability, CellTiter-Glo ATP luminescence, 48-72 h; activity change, negative = cytotoxicity: at 96.7 µM (top of the series); series mostly up to 96.7 µM
# How it was run: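 Cytotoxicity was measured by CellTiter-Glo ATP luminescence after 48 or 72 h compound exposure at 37 °C. Mouse NIH 3T3 fibroblasts were seeded at 400 cells/well and dosed by 23 nL pin transfer.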
# On the % scale 0 is the no-effect control and ±100 the full control effect; potency means the concentration at half of the fitted maximal effect; tags describe the fitted curve by direction and shape.
Structure (SMILES),"activity change, negative = cytotoxicity",Potency,outcome
c1ccc(C(CNc2nccc(-c3ccncc3)n2)N2CCOCC2)nc1 (stereo not given),inactive: -18.1%,,
CC(=O)c1ccc(NC(=O)N[C@H]2CO[C@H]3[C@@H]2OC[C@@H]3Nc2nccc(C(C)(C)C)n2)cc1,inactive: -17.5%,,
Cc1nc(CN2C[C@H](C(=O)NCc3cccc(Cl)c3)C[C@@H]2c2ccc(F)cc2)cs1,,"inconclusive: 50.1 µM [inhibitor, partial curve, poor fit]",
CCOc1cc(CN2CCC(C)(c3noc(C4CCOCC4)n3)CC2)ccc1O,inactive: 2.09%,,
Cc1ccc(F)cc1-n1nc(-c2c(C)nc3scc(CC(=O)N4CCOCC4)n3c2=O)cc1C,,,inactive
Cc1cccc(C)c1-c1nnc2ccc(C(=O)NCc3ccc(Cl)cc3)cn12,,"inconclusive: 35.5 µM [inhibitor, partial curve]",
COc1cc2ncnc(N3CC4CCC(C3)N4CC(F)(F)F)c2cc1OC,,"inconclusive: 39.8 µM [inhibitor, partial curve, poor fit]",
O=C(NCC1CC1)c1nc2c(o1)CCN(Cc1ccc3c(c1)CCO3)CC2,,"inconclusive: 25.1 µM [inhibitor, partial curve, poor fit]",
O=C(NC1CCCN(c2cc(-c3ccc(Cl)cc3)[nH]n2)C1)c1ccccn1 (stereo not given),,"inconclusive: 44.7 µM [inhibitor, partial curve, poor fit]",
C#CCCC(=O)N(Cc1cccc(C)c1)Cc1ccccc1OC,,"inconclusive: 100 µM [inhibitor, partial curve, poor fit]",
O=C(NC1CCCN(c2cc(-c3ccc(F)cc3)[nH]n2)C1)c1cc2ccccc2[nH]1 (stereo not given),,"inconclusive: 44.7 µM [inhibitor, partial curve, poor fit]",
Fc1cc(F)cc(Cc2nc3nccc(-c4ccco4)n3n2)c1,,"inconclusive: 28.2 µM [inhibitor, partial curve, poor fit]",
COC(=O)[C@@H]1Cc2c([nH]c3ccccc23)[C@H]2C[C@@H](NCCc3cnc[nH]3)C[C@@H](c3ccccc3F)N21,,active: 28.2 µM,
Cc1ncsc1C(=O)N1CCCC(CCc2ccc(F)cc2F)C1 (stereo not given),,"inconclusive: 39.8 µM [inhibitor, full curve, poor fit]",
COc1ccccc1CN1CC[C@@H]2CN(S(C)(=O)=O)[C@@H]2C1,inactive: -5.12%,,
COCCNC(=O)[C@@H]1C[C@H](Oc2cccnc2)CN1C(=O)CCc1ccccc1,inactive: -11.3%,,
CC(C)CNC(=O)c1ccc2oc(-c3ccccn3)nc2c1,,"inconclusive: 100 µM [inhibitor, partial curve, poor fit]",
Cc1ccccc1C(=O)N[C@H]1[C@H](O)[C@H](O)C[C@@H]1c1ccc(C(F)(F)F)cc1,,"inconclusive: 100 µM [inhibitor, partial curve, poor fit]",
COCCCNc1ncnc2c1CN(C1CCCC1)C(=O)CN2C,inactive: -14.6%,,
Cc1ccccc1C(=O)N1CCCC(C(=O)N2CCC(c3nc4ccncc4[nH]3)CC2)C1 (stereo not given),inactive: -12.1%,,
N[C@H]1c2ccccc2C[C@@H]1NC(=O)COc1ccc(Cl)cc1Cl,,"inconclusive: 79.4 µM [inhibitor, partial curve, poor fit]",
COC(=O)[C@@H]1Cc2ncn(Cc3ccccc3)c2CN1S(=O)(=O)c1cccc2c(N(C)C)cccc12,,"inconclusive: 79.4 µM [inhibitor, partial curve, poor fit]",

Structure (SMILES),"activity change, negative = cytotoxicity",Potency,outcome
Cc1ccc(NC(=O)N2CCc3[nH]c4ccc(F)cc4c3C2)cc1,,"inconclusive: 50.1 µM [inhibitor, partial curve, poor fit]",
O=C(NCc1c[nH]c2ncccc12)c1cccc(Cl)c1,,"inconclusive: 100 µM [inhibitor, partial curve, poor fit]",
O=C1CCN(C(=O)C2CCN(C(=O)CCc3c[nH]c4ccccc34)CC2)CCCCCCN1,inactive: -19.3%,,
O=C(C1CCN(c2nc(-c3ccccc3)nc3c2CCC3)CC1)N1CCCNCC1,,"inconclusive: 50.1 µM [inhibitor, partial curve, poor fit]",
COc1cc(OC)cc(C(=O)N2CCC(c3n[nH]c(=O)n3-c3ccccc3)CC2)c1,,"inconclusive: 50.1 µM [inhibitor, single point]",
Cc1c(C(=O)NCc2cncn2CC(C)C)oc2c(F)cccc12,,"inconclusive: 56.2 µM [inhibitor, partial curve, poor fit]",
CC(=O)NC1(C)CCN(Cc2cccc(-c3ccc(C(=O)c4ccccc4)cc3)c2)C1 (stereo not given),,active: 35.5 µM,
Cc1cccc(-c2nc3cc(C(=O)NCc4ccc(F)cc4)ccc3o2)n1,,"inconclusive: 89.1 µM [inhibitor, partial curve]",
COCC(=O)N1CCC(Oc2nccnc2N2CCc3ccccc32)C1 (stereo not given),,,inactive
Cc1ccnc(NC(=O)C2CC(=O)N(c3n[nH]c4cccc(F)c34)C2)c1 (stereo not given),,"inconclusive: 44.7 µM [inhibitor, partial curve, poor fit]",
Cn1ccnc1CN1CCC2(CC1)OC(=O)N(Cc1cccnc1)C2(C)c1ccccc1 (stereo not given),,"inconclusive: 112 µM [inhibitor, single point]",
O=C(c1cc(Cl)ccc1F)N1CCCC2(C1)NC(=O)N(Cc1ccccc1)C2=O (stereo not given),inactive: -37.5%,,
CCOC(=O)[C@@H]1[C@@H](OC(N)=O)C(=O)N(C(C)C)C12CCN(C(=O)Cc1ccc(OC)cc1)CC2,,"inconclusive: 50.1 µM [inhibitor, partial curve, poor fit]",
O=C(c1ccc(N2CC3CC(C2)[C@H]2CCCC(=O)N2C3)nc1)N1CCN(C2CCCCC2)CC1 (stereo not given in full),inactive: 3.31%,,
CNC(=O)c1ccc(-c2ccc(OC)nn2)cc1,,"inconclusive: 63.1 µM [inhibitor, partial curve, poor fit]",
COCc1ccc2c(c1)c(OC(C)(C)C(=O)NC1CCOCC1)nn2CCC(C)C,,"inconclusive: 56.2 µM [inhibitor, partial curve, poor fit]",
CN1CCC(N[C@H]2C[C@@H](Cc3cc(C(C)(C)C)on3)C2(C)C)CC1,,active: 50.1 µM,
Cc1noc2c(N3CCOCC3)cc(-c3cccnc3)nc12,,"inconclusive: 89.1 µM [inhibitor, partial curve, poor fit]",
COc1cccc(-c2ccc(CN3CCCC(NC(=O)c4cccnc4)C3)cc2)c1 (stereo not given),,"inconclusive: 50.1 µM [inhibitor, partial curve, poor fit]",
N#Cc1cccc(NC(=O)Cn2cccc2-c2nc(-c3ccccc3)no2)c1,inactive: 0.805%,,
CCOC(=O)[C@@H]1CN(C(=O)OC)[C@H]2c3ccc(OC)cc3O[C@@H]12,inactive: -13%,,
CCc1nc(C)ccc1OCC(=O)NCC1COc2cc(OC)ccc2C1 (stereo not given),,"inconclusive: 89.1 µM [inhibitor, partial curve, poor fit]",

Structure (SMILES),"activity change, negative = cytotoxicity",Potency,outcome
CCCCCC(=O)N[C@H]1C[C@@H](Cc2cc(CN3CCOCC3)on2)C1(C)C,,"inconclusive: 126 µM [inhibitor, single point]",
Cc1ccc(C2=NC3(CCN(C(=O)c4ccccc4C)CC3)ON2)cc1,inactive: -1.15%,,
O=C1Nc2ccc(-c3ccccc3F)cc2C(=O)N2CCN(C(=O)C3CCNCC3)C[C@H]12,,,inactive [at 174 µM]
Cc1cc(C)n(Cc2cc(C(=O)N(C)C(C)c3ccon3)n[nH]2)n1 (stereo not given),inactive: 0.843%,,
COc1ccc(-c2cc(N3CCN(C(=O)c4cc5ccccc5[nH]4)CC3)n[nH]2)cc1,,active: 20 µM,
COc1ccc(Cl)cc1NC(=O)N1CC(c2noc(-c3ccncc3)n2)C1,inactive: -24.2%,,
CC(C)Oc1cccc2c1c(NC(=O)C1CCCO1)nn2Cc1ccccc1 (stereo not given),,"inconclusive: 31.6 µM [inhibitor, full curve, poor fit]",
COc1ccc(-c2nnc3n2CCN(C(=O)Nc2ccccc2)C3)cc1,inactive: -24.4%,,
O=C(Nc1ccc(F)cc1)N1C[C@@H]2OCC(=O)N(Cc3ccc(OC(F)(F)F)cc3)[C@@H]2C1,,"inconclusive: 50.1 µM [inhibitor, partial curve, poor fit]",
CCO[C@H]1CN(C(=O)CN(c2cccc(C)c2)S(C)(=O)=O)C[C@@H]1O,inactive: -25.5%,,
COc1ccc(-c2cccc(C(=O)NCc3ccccc3F)c2)nn1,,"inconclusive: 44.7 µM [inhibitor, partial curve, poor fit]",
COC(=O)CNC(=O)C1CCN(Cc2ccccc2-c2cccnc2)CC1,inactive: -16.3%,,
O=C(NCc1ccc(C(F)(F)F)cc1)C1CCN(C(=O)c2ccc(-c3cncnc3)cc2)CC1,,active: 17.8 µM,
COCCOc1cc(C)c2c(c1C)C[C@H]([C@H](C)C(=O)NC1CCCC1)CC2,,"inconclusive: 70.8 µM [inhibitor, partial curve]",
COC(=O)[C@@H]1Cc2c([nH]c3ccccc23)[C@H]2C[C@@H](NCCN3CCOCC3)C[C@@H](c3ccccc3)N21,,"inconclusive: 28.2 µM [inhibitor, full curve, poor fit]",
CNC(=O)c1cccc(-c2cnc3[nH]cc(CC(=O)Nc4ccccc4C)c3c2)c1,,"inconclusive: 31.6 µM [inhibitor, partial curve, poor fit]",
Cc1ccc(S(=O)(=O)N2C[C@@H]3OCC(=O)N(Cc4ccc(F)cc4)[C@@H]3C2)cc1,,"inconclusive: 112 µM [inhibitor, single point]",
Cc1nn(-c2ccccc2)c2c1C(C(C)C)N(C1CCCN(C(=O)c3ccc(F)cc3)C1)C2=O (stereo not given),,"inconclusive: 39.8 µM [inhibitor, partial curve]",
Cc1ccccc1NC(=O)CCNc1c(-c2ccc(F)cc2)nc2cnccn12,inactive: -12.1%,,
O=C(NCc1ccc(F)cc1F)c1nnn2c1COC(c1ccc(Br)cc1)C2 (stereo not given),inactive: -20.1%,,
COc1cccc(C(=O)N2CC[C@@H]3CN(S(C)(=O)=O)[C@@H]3C2)c1C,inactive: 3.89%,,
